Laboratory results published in PubChem BioAssay AID1963576 (National Center for Advancing Translational Sciences (NCATS), 2024).
In all, about 46,000 compounds went through this assay and about 60 (0.1%) were called active. Inconclusive results (about 3%) are left out. Calls follow the shape of the dose curve; as a rule, active = well fitted inhibition curve with a large enough effect; inconclusive = small, poorly fitted or top-dose-only effect; inactive = no such curve, though single readings can be large or run the other way. Some of the results follow.

Test: Primary qHTS assay for Inhibitors of ovarian cancer metastasis using an organotypic tumor microenvironment (TME) model. Also: nearly all actives have a fitted effect of over 65% in size.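 As to activity change, negative = inhibition: plate controls were DMSO wells for no effect and tomatine positive control wells for full effect.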
Conditions: SKOV3ip1-GFP adhesion/invasion on 3D omental model, fluorescence; series mostly up to 45.8 µM; activity change, negative = inhibition: at the top concentration
Outline: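 Primary human omental fibroblast/mesothelial 3D culture pre-formed 48 h. SKOV3ip1-GFP cells added with compounds (0.36-46 umol/L), incubated 2 h RT/16 h 37 C, fixed; GFP cells quantified at 488/509 nm.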

outcome, inactive:
Cc1ccc(C)c(CN2C(=O)c3ccccc3S(=O)(=O)c3ccc(C(=O)N4CCOCC4)cc32)c1
CCOc1ccccc1NC(=O)Cn1nnc2sc3c(c2c1=O)CCC(C(C)(C)C)C3 (stereo not drawn)
NS(=O)(=O)c1ccc(CCNc2nc3c(-c4cccc(F)c4)nnn3c3ccc(Cl)cc23)cc1
CCN1CCN(C(=O)c2ccc3c(c2)N(Cc2cc(C)ccc2C)C(=O)c2ccccc2S3=O)CC1 (stereo not drawn)
O=C(CN1C(=O)C2(SCC(=O)N2c2cccc(Cl)c2)c2ccccc21)NC1CCCCC1 (stereo not drawn)
CCOC(=O)c1c(C)[nH]c(C)c1S(=O)(=O)N(C)CC(=O)N1CCN(c2ccccc2OC)CC1
Cc1cc(C)c(/C=C/c2onc(C)c2S(=O)(=O)N2CCC(C(=O)NCc3ccco3)CC2)c(C)c1
O=C(CCCCn1c(=O)[nH]c2ccsc2c1=O)N1CCN(c2cccc(Cl)c2)CC1
Cc1nn(CC(=O)N2CCN(c3ccccc3)CC2)c(=O)c2cccn12
Cc1oc(-c2ccc(Cl)cc2)nc1Cn1c(=O)cc(-c2ccccc2)c2c(C)nn(C)c21
COc1ccc(-c2onc(C)c2C)cc1S(=O)(=O)N1CCC(C)CC1
CCOc1ccccc1NC(=O)CSc1cc(=O)n(CC)c2ccccc12
O=C(Cn1cc(S(=O)(=O)Cc2ccc(F)cc2)c2ccccc21)NCc1ccccc1
Cc1cccc(NC(=O)CSc2nc(C)c(Cc3ccccc3)c(=O)[nH]2)c1
COc1ccc(CNC(=O)c2cccc(N3CCCS3(=O)=O)c2)cc1OC
COc1ccc(NC(=O)CN2C(=O)C3(SCC(=O)N3c3ccccc3)c3ccccc32)cc1Cl (stereo not drawn)
CCOC(=O)c1c(C)c(-c2ccccc2)n(CC(=O)NC2CCCCCC2)c1C
CC(C)c1ccc(NC(=O)c2ccc(Cn3nc(N4CCN(c5ccccc5)CC4)ccc3=O)o2)cc1

Activity change, negative = inhibition, inactive:
CCOc1ccc(CNC(=O)Cn2ncc3c(=O)oc4ccc(C)cc4c32)cc1 26.6%
O=S(=O)(c1cccs1)N1CCN(c2ccc(Cl)cc2)CC1 -0.713%
COc1ccc(Cl)cc1NC(=O)[C@H]1O[C@@H]2OC(C)(C)O[C@@H]2[C@H]2OC(C)(C)O[C@H]21 -0.42%
COc1ccc(C(=O)N2CCCCC2CCN2CCCCC2)cc1 (stereo not drawn) -13%
COC(=O)c1cc(NC(=O)CN(c2ccccc2)S(=O)(=O)N(C)C)ccc1Cl 9.8%
COc1ccc(NC(=O)Cn2cc(C(=O)C3CC3)c3ccccc32)cc1 -10.1%
CCOC(=O)N1CCN(C(=O)CN(c2ccc(C)cc2C)S(=O)(=O)c2ccccc2)CC1 0.358%
CCCCN(CCCC)S(=O)(=O)c1ccc2oc(C(=O)NCc3ccccc3)c(C)c2c1 4.83%
COc1cccc(OC)c1C(=O)Nc1ccc2c(c1)CCCN2S(=O)(=O)c1ccc(C)cc1 3.67%
O=C(COCc1cc(-c2ccco2)on1)Nc1ccc(OC(F)(F)F)cc1 2.86%
Cc1ccc(-c2nc3c(cnn3-c3ccccc3)c(=O)n2-c2ccc(Cl)cc2)cc1 2.95%
CCc1nn(CC(=O)NCc2cccc(OC)c2)c(=O)c2cc3cc(F)ccc3n12 -1.28%
O=C(CNS(=O)(=O)c1ccc(Br)s1)N1CCN(c2ccccc2F)CC1 16.3%
Cc1ccc(-n2ncc3c(NCCC4=CCCCC4)ncnc32)cc1C 34.7%
CSc1nc2c([nH]c3ccccc32)c(=O)n1-c1ccc(F)cc1 1.31%
Cn1c(C(=O)NCc2cccc(F)c2)cc2cc(S(=O)(=O)N3CCCCC3)ccc21 -2.21%
COc1cccc(-c2nc(C(N)=O)c3c(n2)n(-c2ccc4c(c2)OCO4)c(=O)n3C)c1OC -3.93%
CCc1ccc(NC(=O)c2ccc(CN3C(=O)C(C)=C(c4ccc(C)cc4)S3(=O)=O)cc2)cc1 3.58%
CC(=O)c1cc(-c2ccccc2)n(CCC(=O)Nc2cc(C)cc(C)c2)c1C 2.16%
CCOc1ccc(-c2cc(C(F)(F)F)c(C#N)c(SCC(=O)Nc3ccccc3)n2)cc1 0.381%
COc1ccccc1CCNC(=O)c1cccn1-c1nnc(N2CCCCC2)s1 -1.64%
COc1ccc2c(c1)CC[C@H]1[C@@H]2CC[C@]2(C)[C@@H](NCCCCCCN3C(=O)C=CC3=O)CC[C@H]12 0.496%
Nc1nc(-c2nn(Cc3ccccc3F)c3ncccc23)nc(N)c1N1CCOCC1 -7.94%
COc1ccc(-c2nc(CNS(=O)(=O)c3ccc(F)cc3)cs2)cc1 8.74%
Cc1ccc(C)c(N2CCN(C(=O)c3c4c(nc5ccccc35)C(=O)N(C3CCCCC3)C4)CC2)c1 -5.96%
COc1ccccc1N1CCN(C(=O)c2c3c(nc4ccccc24)C(=O)N(C2CCCCC2)C3)CC1 -10.2%
CCCNC(=O)CN1C(=O)c2cccnc2Sc2ccccc21 3.85%
C[C@@H]1CN(c2c(F)c(N)c3c(=O)c(C(=O)O)cn(C4CC4)c3c2F)C[C@H](C)N1 3.73% [at 23.2 µM]
COc1ccc2cc(CNc3ccc(OC)c(OC)c3)c(=O)n(CC(=O)Nc3ccc(C)cc3)c2c1 36.8%
COc1cc(OC)cc(-n2c(=O)c3ccccc3n(CC(=O)NCCc3ccc(OC)c(OC)c3)c2=O)c1 -6.64%
CCCOc1cccc(C(=O)Nc2ccc(-c3nc4ccccc4o3)cc2)c1 -0.447%
CCC(C)NC(=O)c1sc2nc(C)c(C(=O)Nc3ccc(Cl)cc3)c(-c3ccc(Br)cc3)c2c1N (stereo not drawn) -2.02%
O=C(CSc1nc2c(c(=O)[nH]1)CN(Cc1ccc3c(c1)OCO3)CC2)Nc1ccc(F)cc1 -2.44%
O=c1cc(-c2ccc(F)cc2)nc(SCc2nc(-c3cccc(C(F)(F)F)c3)no2)[nH]1 0.614%
Cc1c(C(=O)N(Cc2cccc(F)c2)C2CCS(=O)(=O)C2)oc2cc(Br)ccc12 (stereo not drawn) 7.69%
CCn1c(=NC(=O)c2ccc(S(=O)(=O)N3CCCC3)cc2)sc2cc(Br)ccc21 52.5%
CCc1ccc(N2C(=O)CSC23C(=O)N(Cc2cccc(OC)c2)c2ccccc23)cc1 (stereo not drawn) -23.1%
O=C(Cn1ncn2nc(-c3cccs3)cc2c1=O)NCc1ccccc1Cl -0.812%
Cc1cccc(Cn2cnc3c(oc4ccccc43)c2=O)c1 13.5%
COc1cccc(NC(=O)Cn2cc(C(=O)c3ccc(F)cc3)c(=O)c3cc(OC)ccc32)c1 4.62%
